Assay results from the supplement of paper PMC3334620.
The full ranking holds about 33,000 sequences; the median of “E-score (-0.5 to 0.5)” is about -0.041, and the highest 2% start at about 0.37. The list shows a part of the results.

What follows are sequences tested against T1, Ecm22 (UniProt Q05958) (assay: PBM E-score (8-mer binding enrichment) (E-score (-0.5 to 0.5)); higher = stronger / more preferred TF binding; most listed sequences are background and not binding sites). Details: protein concentration: 200 nM; construct: GST-full length.
T1 sequence: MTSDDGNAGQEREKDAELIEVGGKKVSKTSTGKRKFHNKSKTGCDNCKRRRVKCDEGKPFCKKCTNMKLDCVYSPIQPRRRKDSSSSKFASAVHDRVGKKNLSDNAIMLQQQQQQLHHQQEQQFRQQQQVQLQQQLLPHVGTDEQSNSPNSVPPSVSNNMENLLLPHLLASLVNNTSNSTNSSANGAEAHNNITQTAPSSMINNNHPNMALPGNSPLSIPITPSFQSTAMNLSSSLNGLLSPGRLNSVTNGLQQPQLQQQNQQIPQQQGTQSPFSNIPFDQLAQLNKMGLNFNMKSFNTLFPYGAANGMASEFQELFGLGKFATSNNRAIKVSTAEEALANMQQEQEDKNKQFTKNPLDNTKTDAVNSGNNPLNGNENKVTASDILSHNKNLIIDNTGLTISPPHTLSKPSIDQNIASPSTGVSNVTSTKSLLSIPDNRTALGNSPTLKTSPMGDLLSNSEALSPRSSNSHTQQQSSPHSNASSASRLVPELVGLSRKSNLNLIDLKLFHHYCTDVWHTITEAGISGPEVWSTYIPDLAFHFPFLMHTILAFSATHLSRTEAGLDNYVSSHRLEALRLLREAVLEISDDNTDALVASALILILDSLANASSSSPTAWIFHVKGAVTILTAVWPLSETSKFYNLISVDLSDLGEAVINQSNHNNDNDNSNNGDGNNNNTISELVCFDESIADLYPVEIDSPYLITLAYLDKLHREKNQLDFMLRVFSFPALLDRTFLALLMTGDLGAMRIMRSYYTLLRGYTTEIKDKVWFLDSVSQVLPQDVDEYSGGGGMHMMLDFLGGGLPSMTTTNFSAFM
How it was run: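 Detection of bound protein used fluorescent anti-GST, with scans normalised by masliner. The proteins were GST-tagged yeast transcription factors applied at about 100-200 nM to universal all-10-mer Agilent arrays made double-stranded by primer extension. Each ungapped eight-base word, pooled with its reverse complement, was scored with an E-score from the Universal PBM Analysis Suite.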

Sequence	PBM E-score
AGGACTGG	-0.348
AATTCAAA	-0.00386
ACCAAGGG	-0.0669
GGGTGTAA	0.0443
ATAGTCAA	0.115
AGGGTGCC	-0.364
GGTCGCGA	0.248
CACTCCCG	-0.101
CGGACAAG	0.108
CTAAGAAG	-0.0845
CAAACCCA	-0.192
GAGCGACC	0.305
GAATAGTA	0.124
CGTATCCA	0.299
AGTAAATC	-0.201
AACACGCC	-0.0315
GGATAAGA	-0.12
AAGATTGA	-0.203
GAAATGTC	0.0172
ACATTTAT	-0.114
GCTCTTTA	0.0801
ACGGACTC	0.0106
ACTGAGAA	-0.0118
GCAACCCC	-0.263
ATGACGAG	0.0778

Sequence	PBM E-score
CGGGATTA	0.0663
ATAAATGG	-0.14
ATCGTTGA	0.183
AGCATTAG	-0.263
CACCTTAG	-0.335
ATCGTCAA	0.0354
CTCTCTGC	-0.015
ACCCACGT	-0.0378
AAACGGTA	0.287
GTACAACA	0.272
GTACACAA	0.102
CTATGACA	-0.181
GCAGGAAC	0.0756
CATGCCGG	0.0474
ATACATGC	0.175
CGCGTTCA	0.185
CGTCTTGA	-0.0385
AACAGAAA	-0.208
ACGATGGC	0.255
TACTGGGA	-0.0814
TGTGTTAA	0.0214
ACCCGAGG	0.194
AGCGAGGG	0.249
AGTGCGAC	0.137
CGAAAGAA	0.157

Sequence	PBM E-score
CCATTATA	-0.0361
ATGGTTTA	0.0156
CTCGTTGC	0.445
ATGGCCAA	-0.212
GTGTAATA	0.0256
GCGGGCCA	-0.117
AGATTTAG	0.0438
TACATTAA	0.145
CTCTTGTC	0.0278
ACATGGTA	0.134
AATTATCC	0.23
ATCAAAGG	-0.234
CAAGGGCA	-0.353
ACGCCATC	-0.0135
ATGAGACC	-0.123
CCACCGAA	0.0777
ATTCATGA	-0.168
GGCCTGAC	-0.258
ACATTAGG	-0.203
CACTGGAA	0.0376
AAGCTCGT	0.38
ATTCTTTC	-0.0407
GAGCGAGA	0.377
GACAAGCA	-0.158
ACTGGAAA	-0.0956

Sequence	PBM E-score
ATGTGGGA	-0.236
AATTTGCG	0.145
GCTGTACA	-0.0393
GAACATTC	-0.0602
GAGGCGAA	-0.00073
CTTGACAA	-0.0167
CGAGGGTC	0.231
AGGCGACC	-0.0532
GATCATCA	-0.0676
ACAGAAGT	-0.182
TCACCTGA	-0.332
ATCGATCA	0.154
CCATGGAC	-0.101
CCGTAAAC	0.355
GCCAGCCC	-0.185
CCGCAGGA	-0.252
CGAGCCTC	0.251
ACGCCTCT	-0.179
CGCCGATA	0.0708
ATCGCGCG	0.211
ACCGAAGC	0.119
ACGAAGGC	0.319
TCCATGCA	-0.178
ACTCTACA	-0.123
AGCACGCT	-0.119

Sequence	PBM E-score
CACTCCGA	-0.0912
ACTGTAGG	-0.1
ACGAAGGA	0.362
AAAGGTCG	0.00556
CTTACGTC	-0.0355
TCATTAAA	0.0422
GTTATGGA	-0.0843
CTTAGTAA	-0.197
TCTTAAAA	-0.223
ACGGCGTG	0.145
AGTGGTTG	-0.0826
CGAGTTTC	0.248
GAATAGCC	-0.147
GAAGGACC	-0.183
ATGAACAA	0.0355
AACAGCGA	-0.0103
AATAGGCA	-0.16
GAGGCTAC	-0.0866
GGACGCGA	-0.0208
AGCTGTAT	-0.124
ACCTTACC	-0.0514
CCGCTAGC	-0.195
TAGCAACA	0.0917
AATGCCCG	0.0448
AAGCACCA	-0.266

Sequence	PBM E-score
ACCAATAG	-0.255
CCTCTGCC	-0.333
CGAATGTC	-0.00475
AGTGCTTG	-0.0652
AACATACG	0.373
CTCTCCTA	-0.127
ATTTGCCG	0.0916
AAGAAGTA	0.0382
AAGATACA	-0.046
ATATGGGG	-0.185
CACCAAGC	-0.0761
AGAGAGCG	-0.0255
GGTCTGTA	0.0648
ATGGGGGC	-0.288
CAGTCCCC	-0.227
ACTAGACG	0.0989
CACAAATG	-0.0741
GCGGACCC	-0.0681
GTACGGCA	0.395
CAACGGAA	0.0411
ATATGAAC	0.113
CCAGTGAC	-0.286
ACCGGCAT	-0.0694
GTCACGGA	-0.0819
CAGATTGG	-0.345

Sequence	PBM E-score
GTCCGGCA	-0.148
AAGGCGAA	-0.0952
ACGTTTTC	0.192
AAGAATTC	-0.128
GTCTGAAC	0.0949
ATTAAAAA	0.0338
AGGCAACC	-0.216
AACCAGGC	-0.126
TCGTGAGA	0.0762
CTCGCACC	0.31
AAAGGCGC	0.115
TCAAGTCA	-0.192
CCCATAAG	-0.252
ACCCTAGG	-0.139
AGCCTCCT	-0.168
AATGGCTA	0.0032
CCAAAAGA	-0.029
GGGTATGA	-0.0157
AGGCGAGC	-0.0186
GTTAGCAA	0.026
CACCGACG	0.129
AAATGAGC	-0.0263
ATATCCAC	-0.0162
CGTACCTC	0.435
AGGCGTAT	0.184

Sequence	PBM E-score
ATTCGGCG	-0.0748
CAACGCAA	-0.00059
GGCGAACA	-0.122
ACATGGGG	-0.282
GCTAACAC	-0.0776
CGTCGTCC	-0.054
CCCGGCGG	-0.144
ACCGGGCT	-0.0376
AGATACAC	0.0546
ACTAATTA	-0.02
GCCGATCA	-0.00015
GATTCGAA	0.14
CACCATCC	-0.342
CATCACAC	-0.00373
AGATTGCT	-0.101
AAATCAGC	-0.0604
GAACAATC	-0.0337
CTTCGCCC	-0.168
CATGCAGG	-0.222
GTTGAATA	0.177
AGTGATGC	0.0406
AGTTCCTC	-0.117
CCAACCGG	0.0471
ATAGACAC	0.109
TGGACCAA	-0.206

Sequence	PBM E-score
GGAGTTTA	-0.197
AACGTTCC	0.259
CTTGAGAA	-0.141
ATTTCGTA	0.444
CCGATTTC	-0.0193
AACTTCTC	0.119
CCCCGCCC	0.146
ATACCAAA	-0.191
ATGCACTC	0.0164
ACAGATAG	-0.0946
GCTGGGTA	-0.0524
CCATTGAG	-0.0705
ACTTATGG	-0.124
AACAGTAT	0.163
ATTTATTG	-0.177
ATACCGCG	-0.0245
GTTGGACA	-0.173
ATAGAAAG	-0.132
GAGCGCTC	0.00025
TACTATGA	0.056
AGTCGGAC	0.113
GACCATCA	-0.0551
CAAGTTGA	-0.00394
CTGCCGCC	-0.192
GTTGCCTA	-0.0745

Sequence	PBM E-score
AAAGTTAA	-0.0941
AACGGCAG	0.253
AAGTAAGT	-0.077
ACTTATAC	0.33
ATTGTGTC	-0.111
GATCTCGC	0.204
CAATTCTC	-0.125
AGGAATGA	-0.112
GTGCGACA	0.21
AGTTAGTC	-0.103
ACGCAAGT	-0.102
CCACTCGA	0.0344
AACATTGA	-0.0998
CGTGAGAA	-0.0164
CGTGGGCA	-0.289
CGTATCGA	0.299
CATGGCAC	-0.0282
CGCGGGAC	-0.0556
CACTTCCG	-0.143
AGTTAGGA	-0.182
GGCTAGTA	-0.00889
ACTTCCCG	0.0496
ACCCTCGT	0.449
CATGGTAA	-0.0589
AATTGCGC	0.137

Sequence	PBM E-score
ACGTATAC	0.381
CTTTCCAC	-0.114
CAACAATA	-0.0877
ACCCCCCT	-0.25
AGGATTCA	-0.182
TACTGTCA	-0.012
CTGGAGTC	-0.0841
CTCCAAGA	-0.22
CTACCGAA	-0.0377
CGCCTAAC	0.0393
GCTAGTGA	-0.0577
CCGGTTAG	-0.0257
AGTACCAC	0.0416
ACCCTCAT	-0.0611
CGGCGCAG	-0.0964
TAACAGGA	-0.0348
AACGAGTG	0.421
ATACTCCG	-0.0755
CACGCATC	0.179
CGAAATGC	0.139
GCCGATAC	0.119
GTACTCAC	0.129
TTGTCAAA	-0.00242
TAGGTAGA	-0.226
AAGTAAAG	-0.26

Sequence	PBM E-score
ATTCCCAG	-0.0258
CCTTCAAA	-0.195
CGTCTCTA	-0.154
GCAAATAA	-0.0637
ATATGCTA	0.0175
CTGGCGAC	-0.209
AACCGTCA	-0.233
AACCTTCG	0.156
CTTGAATA	-0.166
CCTCCCAA	-0.107
GAACTAGA	0.0301
ACGCTGCT	-0.00608
CAAATTGC	0.104
GGAGGAGA	-0.114
CCGGTGAC	-0.0265
ACTAGCAC	-0.0974
ATTTTATA	0.0403
AGTTGTAA	-0.0537
CTCCGATA	-0.161
GCTTCTAC	0.104
AGCAATGG	-0.0916
AGGACAGA	-0.324
GACCAGTC	-0.26
ATGGTGAG	-0.163
TTCGCGAA	0.28

Sequence	PBM E-score
CATAGATA	-0.181
CGGAAAGC	0.0405
AAACTTAG	-0.191
ATCTGCCC	-0.0671
TCGATACA	0.13
CCGATAAC	0.12
ACAGTGAT	0.0761
ATTAGGAG	-0.155
ATGGAAGC	-0.118
CAGACATC	-0.0843
AATGCGGG	0.0146
GGCGGTAA	0.131
GTTTTGAA	-0.087
ATCGCACC	0.187
CCAAGTGA	-0.177
AAGGTTCC	-0.273
GGCGTACC	0.279
TACTTTGA	-0.0416
TAACGGTA	0.143
GGGTCCGA	0.145
CATGGAGA	-0.251
CCAGGAGA	-0.17
GGATCGCA	0.0913
CCCCTAAA	-0.238
CCTGATAA	0.00885

Sequence	PBM E-score
CAGGCTGC	-0.272
GTATTAAA	0.123
CATCGCTC	0.204
CCTAACAA	-0.113
GGAGCATA	0.026
GTTTTCAA	0.0626
CACCGTTC	0.307
CCGCCACG	-0.167
ACTTGGTC	0.139
ACTATGGG	-0.118
AGTCGTCC	-0.0209
ACTGCCAC	-0.0822
AAGCATAC	0.0946
GGCGCTGA	-0.309
ATCATGGC	-0.119
ACATGTCG	0.0858
ATAGGAAG	0.0431
ATGCCAGG	-0.214
AGGAACTA	0.123
